Patent publication EP1173480B1, “STEREOSELECTIVE ANTIFIBRILLOGENIC PEPTIDES” (Neurochem (International) Limited, priority 1999, dated 2008)
“Also recorded” adds a separate entry of the source. Not every detail of the peptide structures is certain; ends, links or a residue may be inferred. Non-standard residues stand in square brackets, D forms with d. Residues, ends and D or L forms follow the SMILES beside them. No end group written: not given here.

What was measured:
Aβ(1-40) = test: thioflavin T fluorescence assay for fibrillogenesis; type: biochemical; conditions: for Order Of Potency of Peptide Inhibitors, Tested at 20µM / Order Of Potency of Peptide Inhibitors, Tested at 80µM: rank, 1 = strongest activity, Aβ(1-40) 20 µM, ranked by first appearance of fluorescence above background, readings 5-90 hours; for Order Of Potency of Peptide Inhibitors, Tested at 20µM: test peptide 20 µM; for Order Of Potency of Peptide Inhibitors, Tested at 80µM: test peptide 80 µM; for inhibition of Aβ(1-40) fibrillogenesis / assembly, compared with the corresponding all-[L] peptide: all-[L] Aβ (1-40), Fig. 2
[1] = system: fetal rat primary cortical neurons; test: propidium iodide assay of Aβ toxicity (cytoprotection); type: cell-based; conditions: 3 days, compared to Congo red and Aβ alone, Fig. 7, listed as all-[D]-Lys-Leu-Val-Phe-Phe-Ala
[2] = system: SH-SY5Y human neuroblast cell line; test: MTT assay of Aβ (1-40) toxicity (cytoprotection); type: cell-based; conditions: 100 µM test peptide, SH-SY5Y cells, compared with the all-[L] peptide; Fig. 6; listed as all-[D]-Lys-Lys-Leu-Val-Phe-Phe-Ala
Aβ = test: Aβ-NBD environmental probe fibrillogenesis assay; type: biochemical
^125I-LBMP1620 = conditions: Tjernberg et al. 1997, J. Biol. Chem. 272:12602; cited from earlier work
Aβ40 = test: CD spectrum of Aβ40 incubated with peptide; type: biochemical; conditions: for β-sheet content / conformation of Aβ40 by CD spectrum: incubation for 24 hours; for amount of β-sheet content of Aβ40 by CD spectrum: time t=0, physiological conditions
all-[D]-Aβ (1-40) = test: thioflavin T fluorescence assay for fibril formation by [D]-Aβ (1-40); type: biochemical; conditions: Fig. 3
IAPP = IAPP fibril formation by circular dichroism and thioflavin T assay; type: biochemical; conditions: hexapeptides of the 20-29 region of IAPP
Aβ42 = Aβ42 solubilization assay; type: biochemical

| Compound | Order Of Potency of Peptide Inhibitors, Tested at 20µM (Aβ(1-40)) | Order Of Potency of Peptide Inhibitors, Tested at 80µM (Aβ(1-40)) | other results |
| --- | --- | --- | --- |
| CC(C)C[C@@H](NC(=O)[C@H](N)CCCCN)C(=O)N[C@@H](C(=O)N[C@H](Cc1ccccc1)C(=O)O)C(C)C [(D) KLVF] (H-[dK][dL][dV][dF]-OH) | 6 (D) KLVF | 9 (D) KLVF | – |
| CC(C)[C@@H](NC(=O)[C@@H](C)NC(=O)[C@H](N)CCCCN)C(=O)N[C@H](Cc1ccccc1)C(=O)N[C@H](Cc1ccccc1)C(=O)N[C@H](C)C(=O)O [(D) KAVFFA] (H-[dK][dA][dV][dF][dF][dA]-OH) | 7 (D) KAVFFA | 6 (D) KAVFFA | – |
| CC(C)C[C@@H](NC(=O)[C@H](N)CCCCN)C(=O)N[C@@H](C(=O)N[C@H](Cc1ccccc1)C(=O)N[C@H](Cc1ccccc1)C(=O)N[C@H](C)C(=O)O)C(C)C [(D) KLVFFA, Lys-Leu-Val-Phe-Phe-Ala] | 3 (D) KLVFFA | 1 (D) KLVFFA | inhibition of Aβ(1-40) fibrillogenesis / assembly, compared with the corresponding all-[L] peptide (Aβ(1-40); listed as all [D]-Lys-Leu-Val-Phe-Phe-Ala): more potent inhibitor; inhibition of Aβ(1-40) fibrillogenesis / assembly, compared with the corresponding all-[L] peptide (Aβ(1-40); listed as all-[D]-Lys-Leu-Val-Phe-Phe-Ala): much more potent inhibitors; cytoprotective activity [1]: potent cytoprotective agents; also recorded: potent cytoprotective activity |
| CC[C@@H](C)[C@@H](NC(=O)[C@H](N)CCCCN)C(=O)N[C@@H](C(=O)N[C@H](Cc1ccccc1)C(=O)N[C@H](Cc1ccccc1)C(=O)N[C@H](C)C(=O)O)C(C)C [(D) KIVFFA] (H-[dK][dI][dV][dF][dF][dA]-OH) | 1 (D) KIVFFA | 5 (D) KIVFFA | – |
| CC(C)[C@@H](NC(=O)[C@@H](Cc1ccccc1)NC(=O)[C@H](N)CCCCN)C(=O)N[C@H](Cc1ccccc1)C(=O)N[C@H](Cc1ccccc1)C(=O)N[C@H](C)C(=O)O [(D) KFVFFA] (H-[dK][dF][dV][dF][dF][dA]-OH) | 4 (D) KFVFFA | 1 (D) KFVFFA | – |
| CC(C)C[C@@H](NC(=O)[C@@H](CCCCN)NC(=O)[C@H](N)CCCCN)C(=O)N[C@@H](C(=O)N[C@H](Cc1ccccc1)C(=O)N[C@H](Cc1ccccc1)C(=O)N[C@H](C)C(=O)O)C(C)C [(D) KKLVFFA, Lys-Lys-Leu-Val-Phe-Phe-Ala] | 2 (D) KKLVFFA | 1 (D) KKLVFFA | inhibition of Aβ(1-40) fibrillogenesis / assembly, compared with the corresponding all-[L] peptide (Aβ(1-40)): much more potent inhibitors; potency of all-[D] stereoisomer peptide relative to all-[L] stereoisomer peptide (Aβ(1-40); based on concentrations giving equivalent inhibition (400 µM vs 6.1 µM)): about 60 times; inhibition of Aβ neurotoxicity (cytoprotective activity) [2]: potent cytoprotective agents; also recorded: more potent inhibitor of Aβ neurotoxicity; potency of all-[D] stereoisomer peptide relative to all-[L] stereoisomer peptide (Aβ; estimate: lowest all-[D] concentration tested (25 µM) more potent than highest all-[L] concentration (800 µM)): at least 30 times |
| CC(C)C[C@@H](NC(=O)[C@H](N)CCCCN)C(=O)N[C@@H](C(=O)N[C@H](Cc1ccccc1)C(=O)N[C@H](Cc1ccccc1)C(=O)O)C(C)C [(D) KLVFF] | – | – | ^125I-LBMP1620 binding (^125I-LBMP1620): failed to bind |
| KVDDQD [Lys-Val-Asp-Asp-Gln-Asp] | – | – | β-sheet content / conformation of Aβ40 by CD spectrum (Aβ40): dramatic increase; amount of β-sheet content of Aβ40 by CD spectrum (Aβ40): increase; anti-fibrillogenic finding, thioflavin-T based fluorescence assay (Aβ(1-40); in vitro): confirm this finding; anti-fibrillogenic finding, NBD based fluorescence assay (Aβ; in vitro): confirm this finding |
| AFFVLK [(L) AFFVLK, reference compound] | 11 (L) AFFVLK | 11 (L) AFFVLK | – |
| CC(C)C[C@H](NC(=O)[C@H](CCCCN)NC(=O)[C@@H](N)CCCCN)C(=O)N[C@H](C(=O)N[C@@H](Cc1ccccc1)C(=O)N[C@@H](Cc1ccccc1)C(=O)N[C@@H](C)C(=O)O)C(C)C [(L) KKLVFFA, Lys-Lys-Leu-Val-Phe-Phe-Ala, reference compound] | 10 (L) KKLVFFA | 7 (L) KKLVFFA | – |
| CC(C)C[C@H](NC(=O)[C@@H](N)CCCCN)C(=O)N[C@H](C(=O)N[C@@H](Cc1ccccc1)C(=O)N[C@@H](Cc1ccccc1)C(=O)N[C@@H](C)C(=O)O)C(C)C [(L) KLVFFA, Lys-Leu-Val-Phe-Phe-Ala, reference compound] | 8 (L) KLVFFA | 8 (L) KLVFFA | inhibition of all-[D]-Aβ (1-40) assembly, compared with the all-[D] peptide (all-[D]-Aβ (1-40)): more potent inhibitor |
| NNFGAI [Asn-Asn-Phe-Gly-Ala-Ile] | – | – | ability to prevent IAPP fibril formation (IAPP): capable of blocking the formation of IAPP fibrils |
| N[C@@H](CC(=O)O)C(=O)N[C@@H](CC(=O)O)C(=O)N[C@@H](CC(=O)O)C(=O)O [Asp-Asp-Asp] (H-Asp-Asp-Asp-OH) | – | – | β-sheet content / conformation of Aβ40 by CD spectrum (Aβ40): no trace of β-sheet conformation; amount of β-sheet content of Aβ40 by CD spectrum (Aβ40): slight decrease; anti-fibrillogenic property (Aβ42): supported |
| CC(C)C[C@@H](NC(=O)[C@H](NC(=O)[C@@H](Cc1ccccc1)NC(=O)[C@@H](Cc1ccccc1)NC(=O)[C@@H](C)N)C(C)C)C(=O)N[C@H](CCCCN)C(=O)O [(D) AFFVLK] (H-[dA][dF][dF][dV][dL][dK]-OH) | 5 (D) AFFVLK | 1 (D) AFFVLK | – |
| SNNFGA [Ser-Asn-Asn-Phe-Gly-Ala] | – | – | ability to prevent IAPP fibril formation (IAPP): capable of blocking the formation of IAPP fibrils |
